This list was built around the results that the source calls inconclusive (neither active nor inactive); the mix of calls is not that of the screen. Potencies of inconclusive entries are left out as doubtful fits. Calls of active or inactive are those of the source. Calls follow the shape of the dose curve; as a rule, active = well fitted cell-killing curve with a large enough effect; inconclusive = small, poorly fitted or top-dose-only effect, or effect the other way; inactive = no such curve, though single readings can be large or run the other way.
Assay: Viability qHTS for spleen associated tyrosine kinase inhibitor (SYKi) drug resistant MV4-11 cells (AID 1963824); also: nearly all actives have a fitted effect of over 35% in size
Details: SYKi-resistant MV4-11 viability, CellTiter-Glo, 72 h; series mostly up to 45 µM
Procedure, shortened: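 SYK inhibitor-resistant MV4-11 AML cells, 500 per well, added to predispensed compounds and incubated 72 hr at 37 C, 5% CO2. Viability measured by CellTiter-Glo luminescence after 10 min at room temperature.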
Potency is read from the fitted curve at half-maximal effect; tags tell the direction and shape of the fitted curve.

SMILES | Potency
CC(C)n1cc(-c2ccc(Oc3ccccc3)cc2)c2c(N)ncnc21 | active: 0.206 µM
O=C(NNc1nc2cc(F)ccc2n2cccc12)c1cnccn1 | active: 0.731 µM
CN(C(=O)C(Cl)Cl)c1ccc(OC(=O)c2ccco2)cc1 | inactive
O=C(NCCN1CCCC1)c1cc(-c2ccc(CN3CCOCC3)cc2)nc2ccc(F)cc12 | inconclusive [cytotoxic, partial curve, poor fit]
COC1CCC(N2C(=O)CNc3ncc(-c4ccc(C(C)(C)O)nc4)nc32)CC1 (stereo not given) | active: 4.17 µM
COc1cc(/C=C/C(=O)OC[C@H]2O[C@@H](OC3OC=C(C(=O)O)C4C(O)CC(C)(O)C34)[C@H](O)[C@@H](O)[C@@H]2O)cc(OC)c1O (stereo not given in full) | inconclusive [cytotoxic, full curve]
Nc1c(S(=O)(=O)c2ccccc2)c2nc3ccccc3nc2n1-c1ccc(F)cc1 | inconclusive [cytotoxic, partial curve, poor fit]
CC(=O)OCC(=O)NCCCOc1cccc(CN2CCCCC2)c1 | inconclusive [rising, single point]
C[C@@H]1C[C@H]2[C@@H]3CCC4=CC(=O)C=C[C@]4(C)[C@@]3(F)[C@@H](O)C[C@]2(C)[C@@]1(O)C(=O)COP(=O)(O)O | inactive
O=C(O)c1ccc(N2C(=O)/C(=C/c3ccc(-c4ccc([N+](=O)[O-])cc4)o3)C=C2c2ccccc2)cc1 | inconclusive [cytotoxic, partial curve, poor fit]
